# The list shows a part of the results.
# B1: Arath Fbox LD (Arabidopsis thaliana) (protein)
# chain: EFSVWLEKASGKRCLMLSAMNLSIIWGDNPQYWQWIPIPESRFEKVAKLRDVCWFEIRGRTNTRVLSPRTRYSAYIVFKGVDKCYGFQNVAIEAAVGVVGQEPSRRLICFSEAIRRGRRNVVKPKQREDGWMEIELGEFFNDGGIMDNDEIEMSALETKQLNRKCGLIIQGIEIRPAKILAAASFLEQKLISEEDLNSAVDHHHHHH
# Legend:
# Assay in all cases: glycan array binding signal (z-score within array); higher = stronger binding
# Conditions in all cases: glycan notation: IUPAC condensed, linker removed
# [1] = target: Gal(b1-4)GlcNAc(b1-3)Gal(b1-4)GlcNAc(b1-2)[Gal(b1-4)GlcNAc(b1-3)Gal(b1-4)GlcNAc(b1-6)]Man(a1-6)[Gal(b1-4)GlcNAc(b1-3)Gal(b1-4)GlcNAc(b1-2)Man(a1-3)]Man(b1-4)GlcNAc(b1-4)GlcNAc
# Method in brief: (§1)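 Glycan array data were curated from 3228 arrays in the Consortium for Functional Glycomics database and kept only where the protein sequence was available. Glycan names were converted to IUPAC-condensed notation, and columns mapping to the same glycan were averaged. The binding signal is a within-array Z-score, averaged across arrays of the same protein sequence at different concentrations or buffers and across linkers. Negative Z-scores can be read as non-binding.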
# [2] = target: Gal(b1-4)GlcNAc(b1-3)Gal(b1-4)GlcNAc(b1-2)[Gal(b1-4)GlcNAc(b1-3)Gal(b1-4)GlcNAc(b1-6)]Man(a1-6)[Gal(b1-4)GlcNAc(b1-3)Gal(b1-4)GlcNAc(b1-2)Man(a1-3)]Man(b1-4)GlcNAc(b1-4)[Fuc(a1-6)]GlcNAc
# Method in brief: as §1
# [3] = target: Gal(b1-4)GlcNAc(b1-3)Gal(b1-4)GlcNAc(b1-3)Gal(b1-4)GlcNAc
# Method in brief: as §1
# [4] = target: Gal(b1-4)GlcNAc(b1-3)Gal(b1-4)GlcNAc(b1-3)Gal(b1-4)GlcNAc(b1-2)Man(a1-3)[Gal(b1-4)GlcNAc(b1-3)Gal(b1-4)GlcNAc(b1-3)Gal(b1-4)GlcNAc(b1-2)Man(a1-6)]Man(b1-4)GlcNAc(b1-4)GlcNAc
# Method in brief: as §1
# [5] = target: Gal(b1-4)GlcNAc(b1-3)Gal(b1-4)GlcNAc(b1-3)Gal(b1-4)GlcNAc(b1-2)Man(a1-3)[Gal(b1-4)GlcNAc(b1-3)Gal(b1-4)GlcNAc(b1-3)Gal(b1-4)GlcNAc(b1-2)Man(a1-6)]Man(b1-4)GlcNAc(b1-4)[Fuc(a1-6)]GlcNAc
# Method in brief: as §1
# [6] = target: Gal(b1-4)GlcNAc(b1-3)Gal(b1-4)GlcNAc(b1-3)Gal(b1-4)GlcNAc(b1-2)[Gal(b1-4)GlcNAc(b1-3)Gal(b1-4)GlcNAc(b1-3)Gal(b1-4)GlcNAc(b1-6)]Man(a1-6)[Gal(b1-4)GlcNAc(b1-3)Gal(b1-4)GlcNAc(b1-3)Gal(b1-4)GlcNAc(b1-2)Man(a1-3)]Man(b1-4)GlcNAc(b1-4)[Fuc(a1-6)]GlcNAc
# Method in brief: as §1
# [7] = target: Gal(b1-4)GlcNAc(b1-3)Gal(b1-4)GlcNAc(b1-3)Gal(b1-4)GlcNAc(b1-3)Gal(b1-4)GlcNAc(b1-2)Man(a1-3)[Gal(b1-4)GlcNAc(b1-3)Gal(b1-4)GlcNAc(b1-3)Gal(b1-4)GlcNAc(b1-3)Gal(b1-4)GlcNAc(b1-2)Man(a1-6)]Man(b1-4)GlcNAc(b1-4)GlcNAc
# Method in brief: as §1
# [8] = target: Gal(b1-4)GlcNAc(b1-3)Gal(b1-4)GlcNAc(b1-3)Gal(b1-4)GlcNAc(b1-3)Gal(b1-4)GlcNAc(b1-2)Man(a1-3)[Gal(b1-4)GlcNAc(b1-3)Gal(b1-4)GlcNAc(b1-3)Gal(b1-4)GlcNAc(b1-3)Gal(b1-4)GlcNAc(b1-2)Man(a1-6)]Man(b1-4)GlcNAc(b1-4)[Fuc(a1-6)]GlcNAc
# Method in brief: as §1
# [9] = target: Gal(b1-4)GlcNAc(b1-3)Gal(b1-4)GlcNAc(b1-3)Gal(b1-4)GlcNAc(b1-3)Gal(b1-4)GlcNAc(b1-2)[Gal(b1-4)GlcNAc(b1-3)Gal(b1-4)GlcNAc(b1-3)Gal(b1-4)GlcNAc(b1-3)Gal(b1-4)GlcNAc(b1-6)]Man(a1-6)[Gal(b1-4)GlcNAc(b1-3)Gal(b1-4)GlcNAc(b1-3)Gal(b1-4)GlcNAc(b1-3)Gal(b1-4)GlcNAc(b1-2)Man(a1-3)]Man(b1-4)GlcNAc(b1-4)[Fuc(a1-6)]GlcNAc
# Method in brief: as §1
# [10] = target: Gal(b1-4)GlcNAc(b1-3)Gal(b1-4)GlcNAc(b1-3)Gal(b1-4)GlcNAc(b1-3)Gal(b1-4)GlcNAc(b1-3)Gal(b1-4)GlcNAc(b1-2)Man(a1-3)[Gal(b1-4)GlcNAc(b1-3)Gal(b1-4)GlcNAc(b1-3)Gal(b1-4)GlcNAc(b1-3)Gal(b1-4)GlcNAc(b1-3)Gal(b1-4)GlcNAc(b1-2)Man(a1-6)]Man(b1-4)GlcNAc(b1-4)GlcNAc
# Method in brief: as §1
# [11] = target: Gal(b1-4)GlcNAc(b1-3)Gal(b1-4)GlcNAc(b1-3)Gal(b1-4)GlcNAc(b1-3)Gal(b1-4)GlcNAc(b1-3)Gal(b1-4)GlcNAc(b1-2)Man(a1-3)[Gal(b1-4)GlcNAc(b1-3)Gal(b1-4)GlcNAc(b1-3)Gal(b1-4)GlcNAc(b1-3)Gal(b1-4)GlcNAc(b1-3)Gal(b1-4)GlcNAc(b1-2)Man(a1-6)]Man(b1-4)GlcNAc(b1-4)[Fuc(a1-6)]GlcNAc
# Method in brief: as §1
# [12] = target: Gal(b1-4)GlcNAc(b1-3)Gal(b1-4)GlcNAc(b1-3)Gal(b1-4)GlcNAc(b1-3)Gal(b1-4)GlcNAc(b1-3)Gal(b1-4)GlcNAc(b1-2)[Gal(b1-4)GlcNAc(b1-3)Gal(b1-4)GlcNAc(b1-3)Gal(b1-4)GlcNAc(b1-3)Gal(b1-4)GlcNAc(b1-3)Gal(b1-4)GlcNAc(b1-6)]Man(a1-6)[Gal(b1-4)GlcNAc(b1-3)Gal(b1-4)GlcNAc(b1-3)Gal(b1-4)GlcNAc(b1-3)Gal(b1-4)GlcNAc(b1-3)Gal(b1-4)GlcNAc(b1-2)Man(a1-3)]Man(b1-4)GlcNAc(b1-4)[Fuc(a1-6)]GlcNAc
# Method in brief: as §1
# [13] = target: Gal(b1-4)GlcNAc(b1-3)Gal(b1-4)GlcNAc(b1-3)Gal(b1-4)GlcNAc(b1-3)Gal(b1-4)GlcNAc(b1-3)Gal(b1-4)GlcNAc(b1-3)Gal(b1-4)GlcNAc(b1-2)Man(a1-3)[Gal(b1-4)GlcNAc(b1-3)Gal(b1-4)GlcNAc(b1-3)Gal(b1-4)GlcNAc(b1-3)Gal(b1-4)GlcNAc(b1-3)Gal(b1-4)GlcNAc(b1-3)Gal(b1-4)GlcNAc(b1-2)Man(a1-6)]Man(b1-4)GlcNAc(b1-4)GlcNAc
# Method in brief: as §1
# [14] = target: Gal(b1-4)GlcNAc(b1-3)Gal(b1-4)GlcNAc(b1-3)GalNAc
# Method in brief: as §1
# [15] = target: Gal(b1-4)GlcNAc(b1-3)Gal(b1-4)GlcNAc(b1-3)[Gal(b1-4)GlcNAc(b1-3)Gal(b1-4)GlcNAc(b1-6)]GalNAc
# Method in brief: as §1
# [16] = target: Gal(b1-4)GlcNAc(b1-3)Gal(b1-4)GlcNAc(b1-6)[Gal(b1-3)]GalNAc
# Method in brief: as §1
# [17] = target: Gal(b1-4)GlcNAc(b1-3)Gal(b1-4)[Fuc(a1-3)]GlcNAc(b1-3)Gal(b1-4)[Fuc(a1-3)]GlcNAc
# Method in brief: as §1
# [18] = target: Gal(b1-4)GlcNAc(b1-3)GalNAc
# Method in brief: as §1
# [19] = target: Gal(b1-4)GlcNAc(b1-3)[Fuc(a1-3)GlcNAc(b1-6)]Gal(b1-4)Glc
# Method in brief: as §1
# [20] = target: Gal(b1-4)GlcNAc(b1-3)[Gal(b1-4)GlcNAc(b1-6)]Gal(b1-4)GlcNAc
# Method in brief: as §1
# [21] = target: Gal(b1-4)GlcNAc(b1-3)[GlcNAc(b1-6)]Gal(b1-4)GlcNAc
# Method in brief: as §1
# [22] = target: Gal(b1-4)GlcNAc(b1-6)Gal(b1-4)GlcNAc
# Method in brief: as §1
# [23] = target: Gal(b1-4)GlcNAc(b1-6)GalNAc
# Method in brief: as §1
# [24] = target: Gal(b1-4)GlcNAc(b1-6)[Gal(b1-3)]GalNAc
# Method in brief: as §1
# [25] = target: Gal(b1-4)GlcNAc(b1-6)[Gal(b1-4)GlcNAc(b1-3)]GalNAc
# Method in brief: as §1
# [26] = target: Gal(b1-4)GlcNAc6P
# Method in brief: as §1
# [27] = target: Gal(b1-6)Gal
# Method in brief: as §1
# [28] = target: Gal3S(b1-3)GalNAc
# Method in brief: as §1
# [29] = target: Gal3S(b1-3)GlcNAc
# Method in brief: as §1
# [30] = target: Gal3S(b1-3)[Fuc(a1-4)]GlcNAc
# Method in brief: as §1
# [31] = target: Gal3S(b1-4)Glc
# Method in brief: as §1
# [32] = target: Gal3S(b1-4)Glc6S
# Method in brief: as §1
# [33] = target: Gal3S(b1-4)GlcNAc
# Method in brief: as §1
# [34] = target: Gal3S(b1-4)[Fuc(a1-3)]Glc6S
# Method in brief: as §1
# [35] = target: Gal3S(b1-4)[Fuc(a1-3)]GlcNAc
# Method in brief: as §1
# [36] = target: Gal3S(b1-4)[Fuc(a1-3)]GlcNAc6S
# Method in brief: as §1
# [37] = target: Gal3S4S(b1-4)GlcNAc
# Method in brief: as §1
# [38] = target: Gal3S6S(b1-4)GlcNAc
# Method in brief: as §1
# [39] = target: Gal3S6S(b1-4)GlcNAc6S
# Method in brief: as §1
# [40] = target: Gal4S(b1-4)GlcNAc
# Method in brief: as §1
# [41] = target: Gal4S6S(b1-4)GlcNAc
# Method in brief: as §1
# [42] = target: Gal6P(b1-4)GlcNAc
# Method in brief: as §1
# [43] = target: Gal6S(b1-3)GlcNAc
# Method in brief: as §1
# [44] = target: Gal6S(b1-3)GlcNAc6S
# Method in brief: as §1
# [45] = target: Gal6S(b1-4)Glc
# Method in brief: as §1
binder,measurement,setting,value
B1,glycan array binding signal (z-score),[1],1.59
same,glycan array binding signal (z-score),[2],-0.085
same,glycan array binding signal (z-score),[3],0.403
same,glycan array binding signal (z-score),[4],0.028
same,glycan array binding signal (z-score),[5],-0.363
same,glycan array binding signal (z-score),[6],0.105
same,glycan array binding signal (z-score),[7],-0.324
same,glycan array binding signal (z-score),[8],-0.558
same,glycan array binding signal (z-score),[9],-0.089
same,glycan array binding signal (z-score),[10],-0.532
same,glycan array binding signal (z-score),[11],-0.468
same,glycan array binding signal (z-score),[12],0.086
same,glycan array binding signal (z-score),[13],-0.201
same,glycan array binding signal (z-score),[14],-0.395
same,glycan array binding signal (z-score),[15],-0.532
same,glycan array binding signal (z-score),[16],-0.232
same,glycan array binding signal (z-score),[17],-0.413
same,glycan array binding signal (z-score),[18],-0.442
same,glycan array binding signal (z-score),[19],-0.596
same,glycan array binding signal (z-score),[20],-0.346
same,glycan array binding signal (z-score),[21],-0.548
same,glycan array binding signal (z-score),[22],-0.326
same,glycan array binding signal (z-score),[23],0.625
same,glycan array binding signal (z-score),[24],-0.495
same,glycan array binding signal (z-score),[25],-0.018
same,glycan array binding signal (z-score),[26],-0.55
same,glycan array binding signal (z-score),[27],0.384
same,glycan array binding signal (z-score),[28],2.23
same,glycan array binding signal (z-score),[29],0.381
same,glycan array binding signal (z-score),[30],-0.069
same,glycan array binding signal (z-score),[31],4.4
same,glycan array binding signal (z-score),[32],2.1
same,glycan array binding signal (z-score),[33],1.3
same,glycan array binding signal (z-score),[34],1.65
same,glycan array binding signal (z-score),[35],-0.17
same,glycan array binding signal (z-score),[36],3.79
same,glycan array binding signal (z-score),[37],0.379
same,glycan array binding signal (z-score),[38],2.51
same,glycan array binding signal (z-score),[39],1.53
same,glycan array binding signal (z-score),[40],0.356
same,glycan array binding signal (z-score),[41],-0.39
same,glycan array binding signal (z-score),[42],-0.578
same,glycan array binding signal (z-score),[43],0.319
same,glycan array binding signal (z-score),[44],-0.456
same,glycan array binding signal (z-score),[45],0.172

# Reference: the supplement of paper PMC8728848
